B1: PhoQ; a variant is named by its letters at X, in order, P23837 (parent)
chain: MKKLLRLFFPLSLRVRFLLATAAVVLVLSLAYGMVALIGYSVSFDKTTFRLLRGESNLFYTLAKWENNKLHVELPENIDKQSPTMTLIYDENGQLLWAQRDVPWLMKMIQPDWLKSNGFHEIEADVNDTSLLLSGDHSIQQQLQEVREDDDDAEMTHSVAVNVYPATSRMPKLTIVVVDTIPVELKSSYMVWSWFIYVLSANLLLVIPLLWVAAWWSLRPIEALAKEVRELEEHNRELLNPATTRELTSLVRNLNRLLKSERERYDKYRTTLTDLTHSLKTPLXXLQXXLRSLRSEKMSVSDAEPVMLEQISRISQQIGYYLHRASMRGGTLLSRELHPVAPLLDNLTSALNKVYQRKGVNISLDISPEISFVGEQNDFVEVMGNVLDNACKYCLEFVEISARQTDEHLYIVVEDDGPGIPLSKREVIFDRGQRVDTLRPGQGVGLAVAREITEQYEGKIVAGESMLGGARMEVIFGRQHSAPKDE

This is one part of the list. Some results are limits rather than exact numbers.

The variants in this test derive from B1. In words: enrichment ratio after two sorts for PhoP signalling (ratio (wild type AVST 3.29)); higher = more functional. The note with it: with PhoP (E. coli).
Turning to NKME, the enrichment ratio is at most 0.25.
The result for RHKY reads at most 0.25.
The result for ETYE reads at most 0.25; that for NKCF, at most 0.25; that for VSDC, at most 0.25.
Regarding LWCI, the enrichment ratio is at most 0.25.
For the variant WGHY, the enrichment ratio was at most 0.25.
Consider YNSW, for which the enrichment ratio was at most 0.25.
The result for QTAA reads at most 0.25.
The result for ANYV reads at most 0.25; that for VMFQ, at most 0.25; that for PRGG, at most 0.25.
As for WFFD, the enrichment ratio is at most 0.25.
The result for SVDF reads at most 0.25; that for EEFQ, at most 0.25; that for PNNH, at most 0.25.
Under KQTS stands at most 0.25.
The result for PCVM reads at most 0.25; that for YSCY, at most 0.25; that for PRGR, at most 0.25.
In the case of GFAD, the enrichment ratio is at most 0.25.
Under WKLP stands at most 0.25.
The result for TWIR reads at most 0.25; that for MGEN, at most 0.25.
For the variant AYSH, the enrichment ratio was at most 0.25.
The result for LWIT reads at most 0.25.
The result for KACW reads at most 0.25; that for FESC, at most 0.25; that for LKSK, at most 0.25.
AAHR: the enrichment ratio was at most 0.25.
For the variant GNTT, the enrichment ratio was 2.98.
The result for RLGC reads at most 0.25; that for HNQD, at most 0.25.
The result for NWYT reads at most 0.25; that for ALCI, 9.33.
The result for YFTP reads at most 0.25; that for LVHW, at most 0.25; that for LTKV, at most 0.25.
For ARNS, the enrichment ratio was at most 0.25.
Under YTQH stands at most 0.25.
The result for RGKD reads at most 0.25; that for YGVS, 0.253.
The result for YLVG reads at most 0.25; that for AASQ, 3.49; that for QWGS, at most 0.25.
For the variant PIKN, the enrichment ratio was at most 0.25.
For the variant YDCI, the enrichment ratio was at most 0.25.
The result for QSGY reads 6.88.
The result for WRWD reads at most 0.25; that for AEAY, 39.2.
Turning to QFRH, the enrichment ratio was at most 0.25.
Under WMLT stands at most 0.25; under RWQS, at most 0.25; under ESHL, at most 0.25.
Regarding LLVA, the enrichment ratio is at most 0.25.
The result for PADF reads at most 0.25.
Under SLTN stands 7.41.
The result for TKFW reads at most 0.25.
As to VYII, the enrichment ratio was at most 0.25.
Under QLHN stands at most 0.25; under RRQD, at most 0.25.
The result for SYVL reads at most 0.25.
On to HVEG, for which the enrichment ratio was at most 0.25.
Under TWEG stands at most 0.25; under IFQP, at most 0.25; under RLPK, at most 0.25.
For IKYY, the enrichment ratio is at most 0.25.
The result for DIMY reads at most 0.25.
On to EEPF, for which the enrichment ratio was at most 0.25.
The result for LHGA reads at most 0.25; that for VLGY, at most 0.25; that for RCPD, at most 0.25.
The result for RARD reads at most 0.25.
Under GYEF stands at most 0.25; under YTVT, at most 0.25.
Take VAGD: the enrichment ratio was at most 0.25.
Under AFSI stands at most 0.25; under DMQV, at most 0.25.
The result for VYPK reads at most 0.25.
The result for YGNA reads at most 0.25; that for FQAS, at most 0.25; that for RMQH, at most 0.25.
Take GHNS: the enrichment ratio was at most 0.25.
For LDDW, the enrichment ratio is at most 0.25.
The result for MQPA reads at most 0.25.
On to IQHG, for which the enrichment ratio is at most 0.25.
IRAE: the enrichment ratio was at most 0.25.
Under WAKR stands at most 0.25; under KDTD, at most 0.25; under SAWP, at most 0.25.
FQHR: the enrichment ratio was at most 0.25.
The result for AHRE reads at most 0.25; that for EMSP, at most 0.25.
The result for HKKP reads at most 0.25.
With WQWV, the enrichment ratio is at most 0.25.
Under LICV stands at most 0.25; under AYRM, at most 0.25.
The result for LTRP reads at most 0.25.
Under HNGA stands at most 0.25; under QCKI, at most 0.25.
On to QDDP, for which the enrichment ratio was at most 0.25.
Under CSMS stands at most 0.25; under PYEM, at most 0.25; under YIFS, at most 0.25.
Under WYYI stands at most 0.25.
As to VFSW, the enrichment ratio is at most 0.25.
Under HHIR stands at most 0.25; under IGHT, at most 0.25; under SKEG, at most 0.25.
The result for DTTT reads at most 0.25.
The result for FNQF reads at most 0.25; that for YTLI, 12.8; that for NLGI, at most 0.25.
As to VSDT, the enrichment ratio was at most 0.25.
The result for LKEQ reads at most 0.25; that for GTCH, 4.08.
Under NDGM stands at most 0.25; under DRAQ, at most 0.25.
The result for EGLA reads at most 0.25.
Turning to NFTL, the enrichment ratio was at most 0.25.
Under YCSW stands at most 0.25; under KLYF, at most 0.25.
Under LHLA stands at most 0.25; under ECSE, at most 0.25.
The result for VVFY reads at most 0.25; that for PPKT, at most 0.25.
On to YAGR, for which the enrichment ratio is at most 0.25.
The result for REWF reads at most 0.25.
The result for MFHI reads at most 0.25.
The result for NTVR reads at most 0.25; that for TSKS, at most 0.25; that for NVLS, at most 0.25.
On to KFMP, for which the enrichment ratio is at most 0.25.
On to YKDT, for which the enrichment ratio is at most 0.25.
Under LFQA stands at most 0.25.
Turning to ICAQ, the enrichment ratio was at most 0.25.
For PIDD, the enrichment ratio is at most 0.25.
The result for YSPN reads at most 0.25; that for NTFS, at most 0.25; that for PFFI, at most 0.25.
Under YWPD stands at most 0.25; under GYWI, at most 0.25; under EHRM, at most 0.25.
Under PGIC stands at most 0.25.
For NCSH, the enrichment ratio was at most 0.25.
Under DYID stands at most 0.25.
The result for VQHR reads at most 0.25.
Under AQSR stands at most 0.25; under HDKR, at most 0.25; under VSQE, at most 0.25.
With TARP, the enrichment ratio was at most 0.25.
Under MSRT stands at most 0.25.
The result for DLHS reads at most 0.25.

The values are drawn from a collection of fitness landscapes (doi:10.1126/science.1257360).
